# This is one part of the list. Viral Rep nickase domains cut single-stranded DNA in vitro (3 µM enzyme, 1 h, 37 °C); shown is the middle of each 90-letter strand. The score is log2 (uncut reads / reads without enzyme); the lower, the more was cut; hits are not called. Because reads are shares of a total, they shift together; uncut strands gain when others are lost, and binding without cutting may add a little.
# Assays:
# Assay in all cases: uncleaved DNA left, log2 of reads against the no-enzyme library (log2 ratio); higher = less cleavage (more negative = more Rep cleavage of the k-mer); sequences stand for … in CTCGTCCG…ACCGGAGA
# [1] = tested on: T1, Rep nickase domain of Muscovy duck circovirus
# T1 sequence (Rep 1-111, printed without the tag): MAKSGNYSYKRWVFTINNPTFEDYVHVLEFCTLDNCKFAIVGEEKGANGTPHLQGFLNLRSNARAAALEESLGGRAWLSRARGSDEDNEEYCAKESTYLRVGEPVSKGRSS
# Procedure: (§1)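 A pool of 90-nt single-stranded DNAs with seven random bases just before the constant AC of the nick site (name = the seven bases) was cut by 3 µM recombinant His6-SUMO-tagged Rep nickase domain (300 nM DNA, 50 mM HEPES pH 8.0, 50 mM NaCl, 1 mM MnCl2, 1 h, 37 °C, three replicates). Uncut DNA was amplified and sequenced.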
# [2] = tested on: T2, Rep nickase domain of banana bunchy top virus
# T2 sequence (Rep 1-94, printed without the tag): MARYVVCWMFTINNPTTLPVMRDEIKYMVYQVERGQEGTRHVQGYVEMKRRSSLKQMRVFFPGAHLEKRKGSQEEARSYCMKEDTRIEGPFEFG
# Procedure: as §1
# [3] = tested on: T3, Rep nickase domain of cabbage leaf curl virus
# T3 sequence (Rep 1-116, printed without the tag): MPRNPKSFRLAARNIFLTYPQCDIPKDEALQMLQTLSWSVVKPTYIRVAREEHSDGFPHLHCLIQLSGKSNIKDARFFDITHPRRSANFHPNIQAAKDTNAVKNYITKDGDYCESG
# Procedure: as §1
# [4] = tested on: T4, Rep nickase domain of chickpea chlorotic dwarf virus
# T4 sequence (Rep 1-124, printed without the tag): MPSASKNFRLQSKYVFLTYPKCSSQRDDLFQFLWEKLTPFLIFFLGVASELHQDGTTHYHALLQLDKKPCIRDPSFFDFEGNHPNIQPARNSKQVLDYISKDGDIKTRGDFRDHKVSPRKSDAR
# Procedure: as §1
# [5] = tested on: T5, Rep nickase domain of faba bean necrotic yellows virus
# T5 sequence (Rep 1-98, printed without the tag): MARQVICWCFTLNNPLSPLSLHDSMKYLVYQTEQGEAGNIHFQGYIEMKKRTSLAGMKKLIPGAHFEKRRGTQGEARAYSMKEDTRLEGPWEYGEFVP
# Procedure: as §1
# [6] = tested on: T6, Rep nickase domain of maize striate mosaic virus
# T6 sequence (Rep 1-117, printed without the tag): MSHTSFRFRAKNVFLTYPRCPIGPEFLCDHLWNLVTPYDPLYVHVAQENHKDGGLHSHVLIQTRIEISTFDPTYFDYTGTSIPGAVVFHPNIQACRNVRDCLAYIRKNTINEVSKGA
# Procedure: as §1
# [7] = tested on: T7, Rep nickase domain of porcine circovirus 2
# T7 sequence (Rep 2-116, printed without the tag): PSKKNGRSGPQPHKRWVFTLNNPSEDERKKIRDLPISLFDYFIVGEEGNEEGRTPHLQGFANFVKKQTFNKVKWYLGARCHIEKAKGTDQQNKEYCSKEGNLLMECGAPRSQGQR
# Procedure: as §1
# [8] = tested on: T8, Rep nickase domain of tomato yellow leaf curl virus
# T8 sequence (Rep 1-136, printed without the tag): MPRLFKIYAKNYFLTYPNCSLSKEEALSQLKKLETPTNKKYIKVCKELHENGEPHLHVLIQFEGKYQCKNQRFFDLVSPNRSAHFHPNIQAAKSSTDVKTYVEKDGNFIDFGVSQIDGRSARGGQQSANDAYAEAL
# Procedure: as §1
# [9] = tested on: T9, Rep nickase domain of wheat dwarf virus
# T9 sequence (Rep 1-137, printed without the tag): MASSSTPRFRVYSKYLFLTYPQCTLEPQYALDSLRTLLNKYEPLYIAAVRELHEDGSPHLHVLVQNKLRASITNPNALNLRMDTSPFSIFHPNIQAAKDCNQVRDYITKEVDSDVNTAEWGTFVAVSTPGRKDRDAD
# Procedure: as §1
Sequence,uncleaved DNA left (log2) [1],uncleaved DNA left (log2) [2],uncleaved DNA left (log2) [3],uncleaved DNA left (log2) [4],uncleaved DNA left (log2) [5],uncleaved DNA left (log2) [6],uncleaved DNA left (log2) [7],uncleaved DNA left (log2) [8],uncleaved DNA left (log2) [9]
GCGCAGT,0.146,0.102,0.203,0.622,0.0297,0.616,0.185,0.123,0.195
CCCTCAT,-0.255,-0.268,-0.043,-0.821,-0.0977,-0.496,-0.5,-0.113,-0.104
GCCACTG,-0.0865,0.0211,0.016,0.494,-0.109,1.22,0.0617,-0.187,0.0218
CCGTATT,-2.8,-2.62,-2.1,-1.93,-2.37,-0.655,-3.07,0.0916,-2.28
CGGGCGT,0.0279,0.0135,0.079,0.417,0.0181,0.279,0.0919,-0.00413,0.00387
TGTCTAT,-0.0373,-0.042,0.187,0.0704,0.0824,0.52,-0.0782,-0.0155,0.122
ACCAAAA,-0.0168,0.0645,-0.158,0.0452,-0.00858,-0.848,0.103,-0.131,0.0251
TCGCAAC,0.0227,-0.059,0.0406,-0.983,-0.0497,-0.52,-0.162,-0.148,-0.139
CTTGTGA,0.122,-0.0411,-0.597,-0.649,0.0657,-1.18,0.154,-0.00754,-0.14
ATTTGAC,0.0952,-0.128,-0.0205,-0.19,0.00895,-0.804,0.0761,-0.017,-0.008
CTACTTC,0.00531,-0.0775,-0.0443,-1.78,-0.0648,-0.732,0.0461,-0.0886,-0.167
AAGACCC,0.116,0.126,0.632,1.35,0.142,1.64,0.118,0.0142,0.122
CTACGCC,0.0417,0.0145,-0.131,-0.598,0.0763,-0.618,-0.00888,0.0254,-0.147
TATGATT,-0.464,-0.736,-3.01,-2.81,0.107,-0.168,-2.16,0.144,-0.551
TAGAATG,0.0349,-0.0644,-0.136,0.49,-0.0206,1.12,-0.044,-0.22,-0.00572
GCTGGTT,-0.0455,-0.0439,0.118,0.101,-0.0498,0.959,0.0657,-0.107,0.00338
GGCATAC,0.0632,0.0518,0.668,1.51,0.0889,2.03,0.215,0.0727,0.133
GTGATGG,0.0188,-0.0212,0.237,0.771,0.0442,0.798,-0.0496,-0.11,-0.0722
GGTAATC,0.157,0.23,0.715,1.57,0.0832,2.03,0.307,0.136,0.313
GACGTTC,-0.0531,-0.00432,0.598,0.98,-0.0115,1.73,0.131,0.00363,0.0366
GATTTGC,-0.0406,-0.0961,-0.715,-0.372,0.0156,-1.01,-0.0851,-0.0226,-0.206
ACCTGTT,-2.91,-0.22,-0.948,-2.1,-0.242,-0.638,-2.88,-0.0419,-0.589

Sequence,uncleaved DNA left (log2) [1],uncleaved DNA left (log2) [2],uncleaved DNA left (log2) [3],uncleaved DNA left (log2) [4],uncleaved DNA left (log2) [5],uncleaved DNA left (log2) [6],uncleaved DNA left (log2) [7],uncleaved DNA left (log2) [8],uncleaved DNA left (log2) [9]
AACAAAA,0.0385,-0.0143,-0.0332,-0.542,0.00218,-0.696,0.0232,-0.0818,-0.0394
GTGCAAA,0.0847,0.253,0.467,1.29,0.163,1.74,0.207,0.279,0.285
GCGTGCT,-0.275,0.00623,-0.433,-0.474,-0.146,-0.503,-2.33,0.00658,-0.341
GATGGGA,0.0118,0.0861,0.298,0.78,0.0565,0.785,0.102,0.0557,0.0253
AGCGGCC,0.0353,0.0316,0.102,0.631,0.0149,1.18,0.039,-0.00372,0.0371
AGTTGAC,0.255,0.21,0.12,0.717,0.184,0.167,0.252,0.127,0.257
GCTTTGT,0.0299,0.0361,-0.122,0.169,0.0866,-0.309,-0.204,-0.0516,0.0717
CAGTGAG,-0.162,-0.182,-0.926,-0.131,-0.139,-0.913,-0.00954,-0.101,-0.307
GTTCATT,0.0265,0.0488,0.413,0.917,0.0835,1.79,-0.17,0.0803,0.181
CCCCGGT,-0.0974,-0.0161,0.514,1.6,-0.119,1.55,-0.12,-0.0918,-0.0349
AGGCTCT,-0.121,-0.0619,0.26,-0.39,-0.00642,0.745,-0.0482,-0.0866,0.083
GGGATTC,-0.0637,0.0215,0.721,1.9,-0.141,2.17,0.136,0.0381,0.0801
AGCCCCT,-0.0167,-0.133,0.186,0.345,-0.14,1.37,-0.174,-0.0233,-0.0862
TCTTAAC,0.104,0.0953,-0.00336,-1.46,0.156,-0.313,0.113,0.143,0.0937
GACTATC,0.242,0.0447,0.308,0.693,0.256,0.832,-1.19,0.2,0.0949
CGTACAT,0.0281,-0.0333,0.504,0.876,0.0625,1.31,-0.141,-0.035,0.0337
CATTATA,-1.25,-1.69,-0.203,-2.8,0.0583,-0.96,-1.61,0.101,0.0241
TTGCGAA,-0.0241,0.00282,-0.783,0.0907,0.0214,-0.8,0.0849,0.109,-0.00787
AACCGTT,-0.0802,-0.166,-0.425,-2.22,-0.0587,-0.804,-3,-0.124,-0.203
CATCGTC,0.0432,-0.0371,-0.269,-0.501,0.0519,-1.01,0.0446,-0.0986,-0.0343
GCATCTG,0.0554,0.0148,-0.101,0.446,0.0303,0.327,0.0374,0.0302,0.0547
CAGATAC,0.0773,-0.124,-0.219,-0.361,-0.0689,-0.781,0.0281,-0.0883,-0.0132

Sequence,uncleaved DNA left (log2) [1],uncleaved DNA left (log2) [2],uncleaved DNA left (log2) [3],uncleaved DNA left (log2) [4],uncleaved DNA left (log2) [5],uncleaved DNA left (log2) [6],uncleaved DNA left (log2) [7],uncleaved DNA left (log2) [8],uncleaved DNA left (log2) [9]
AAGATGT,-0.0553,-0.0292,0.13,0.878,-0.139,1.3,-2.13,-0.138,-0.0163
AGTTTAC,-0.0486,-0.0377,0.119,0.248,0.0468,0.329,-0.0758,-0.000999,-0.0236
CCAAAGC,0.0325,0.032,-0.171,-0.248,0.112,-1.02,0.163,0.118,0.0966
TTAGCAG,0.0899,0.0621,-0.503,-0.607,0.0461,-1.05,0.244,0.0466,0.0515
ACTGCAA,0.0686,-0.034,-0.203,-0.0956,-0.027,-0.817,-0.0232,0.0895,0.0646
GTACGGT,-0.0134,0.00898,0.393,1.04,-0.156,1.9,0.043,-0.0841,0.0665
AATATCT,-0.244,-0.813,-1.97,-2.97,-0.00535,-0.97,-3.77,0.0187,-0.201
CTTTACC,-0.264,-0.103,-0.445,-2.61,-0.0624,-0.693,-1.3,0.0429,-0.158
TCGCCGT,-0.0525,-0.212,-0.506,-0.766,-0.292,-0.949,-0.126,-0.123,-0.307
CTGGCGA,0.04,-0.157,-0.649,-0.323,0.00882,-0.649,0.117,0.0768,-0.103
AGTGTAA,0.014,-0.0372,0.0287,0.409,-0.138,0.941,-0.307,-0.0368,-0.0316
GTACGTG,0.057,-0.104,-0.125,-0.0546,-0.0459,-0.298,0.0128,0.00838,-0.0966
CCAGTTG,-0.0437,-0.0703,-0.0644,0.221,-0.0529,-0.291,0.0304,-0.183,-0.0884
GGTAAAC,-0.0607,0.0603,0.505,1.28,-0.0844,1.83,0.13,-0.00546,0.0863
GAGTAGA,0.291,0.104,0.274,0.477,0.0156,0.315,-1.9,0.193,0.122
TCTGTGG,-0.00861,-0.0471,0.208,0.474,0.056,0.0977,-0.0353,-0.0445,-0.0536
ACGGCCT,0.156,-0.0104,-0.199,-0.773,0.0928,-0.0351,-0.07,-0.24,-0.0289
AATGGGC,0.115,-0.0323,0.00239,0.179,-0.0243,-0.319,0.157,-0.029,-0.0145
ATCCTCC,0.0939,0.102,0.178,0.297,0.11,0.749,0.143,-0.0284,0.167
CGACACT,-0.000672,-0.113,-0.0456,-0.618,-0.158,0.44,-0.158,-0.0709,0.033

# — the supplement of paper PMC7826260
